{"source": "patent US20230122393A1", "about": "“STEROIDAL NITRONE F2 FOR USE IN THE PREVENTION AND/OR TREATMENT OF PERMANENT CEREBRAL ISCHAEMIA” (ISQUAEMIA BIOTECH, S.L., priority 2020, published 2023)", "key": {"global cerebral ischemia": {"test_system": "global cerebral ischemia", "test": "Neurological deficit score (NDS), therapy window study in global cerebral ischemia", "settings": "F2 0.05 mg/kg i.v. 0-6 hours after reperfusion; 5 d", "protocol": "Body temperature of 37° C. was maintained.\nEvaluation of neurological deficits.\nAnimals were subjected to a functional test before sacrifice in order to quantify their potential disability. In this test, a series of variables related to the general state of the animal (breathing, coordination, aspect, etc.) were assigned a mark corresponding to the degree of severity by which that variable is affected."}, "[1]": {"test_system": "permanent focal cerebral ischemia (pMCAO)", "test": "Somatosensory evoked potentials after permanent MCA occlusion (pMCAO)", "settings": "F2 0.1 mg/kg i.p. at 2 and 12 h; non-damaged hemisphere, after stroke", "protocol": "FIG. 13. Evaluation of functional brain territory in stroke mice with pMCAO and treated with F2. (A) Representative somatosensory evoked contralateral potentials recorded before and 72 hours post-stroke in treated (F2) and non-treated (vehicle, control) mice. F2 was administered at 2 and 12 hours after MCA ligation. […] In both groups, the electrical stimulus was twice the current level necessary to obtain a supramaximal motor response, typically 1-2 mA. (B) Amplitude of evoked activity in the somatosensory cortex (forepaw sensory field) in the infarcted (left panel) and non-infarcted (right panel) hemispheres of non-treated (vehicle) and treated (F2) mice over time after stroke. The cartoons show the position of recording electrode in relation with the stimulated forepaw. Data are presented as the means ±SEM. For every time point analysed, the black asterisks denote significant differences between non-treated (vehicle) and treated (F2) mice (two-way ANOVA followed by Tukey's test; *p<0.05, **p<0.05).\nFIG. 14. Ipsilateral activity in stroke mice with pMCAO and treated with F2. […]\nThe analysis of ipsilateral potentials corroborated these findings. […] In fact, in treated animals (F2) the temporal course of ipsilateral response followed the dynamics of contralateral response determined in the damaged hemisphere (FIG. 13B, left panel). […]"}}}
{"smiles": "CC(C)CCC[C@@H](C)[C@H]1CC[C@H]2[C@@H]3CCC4=C/C(=[N+](\\C)[O-])CC[C@]4(C)[C@H]3CC[C@]12C", "note": "[F2, (E)-N-((8S,9S,10R,13R,14S,17R)-10,13-dimethyl-17-((R)-6-methylheptan-2-yl)-7,8,9,11,12,13,14,15,16,17-decahydro-1H-cyclopenta[a]phenanthren-3(2H,6H,10H)-ylidene)methanamine oxide]", "values": [{"measurement": "neurological deficit score (NDS) vs vehicle", "setting": "global cerebral ischemia", "value": "improvement in the animal treated with F2 was observed with significative differences to the vehicle group"}, {"measurement": "ipsilateral potentials vs non-treated animals", "setting": "[1]", "value": "more preserved in F2 mice than in non-treated animals"}]}
